# Assay results published in PubChem BioAssay AID588342 (National Center for Advancing Translational Sciences (NCATS), 2011).
# Among all 360,000 compounds or so, about 25,000 (6.9%) were called active. The inconclusive results got no clear call from the source; some entries with a clear call stand among them for comparison. Calls come from the whole dose curve; as a rule, active = well fitted inhibition curve with a large enough effect; inconclusive = small, poorly fitted or top-dose-only effect; inactive = flat fitted curve, though single readings scatter. Where the call is inconclusive, the potency comes from a doubtful curve fit.
# Biological target: Luciferin 4-monooxygenase (Photinus pyralis) (UniProt P08659)
# Assay: qHTS profiling assay for firefly luciferase inhibitor/activator using purifed enzyme and Km concentrations of substrates (counterscreen for miR-21 project); note: nearly all actives have a fitted effect of over 55% in size;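 for activity change, negative = inhibition: plate controls were vehicle for no effect and reference inhibitor for full effect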
# Conditions: purified FLuc, luminescence inhibition; activity change, negative = inhibition: at 57.5 µM (top of the series)
# How it was run: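 Purified P. pyralis luciferase (10nM final) with 10uM D-luciferin and 10uM ATP (Km levels) in 50mM Tris acetate pH 7.5, 10mM Mg acetate, 0.01% Tween-20, 0.05% BSA; qHTS 6-point titration, ~60 µM downward; luminescence read.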
# Potency is the fitted concentration of half-maximal effect; tags give direction and shape of the fitted curve.
# UniProt P08659, sequence (P08659 whole entry, looked up): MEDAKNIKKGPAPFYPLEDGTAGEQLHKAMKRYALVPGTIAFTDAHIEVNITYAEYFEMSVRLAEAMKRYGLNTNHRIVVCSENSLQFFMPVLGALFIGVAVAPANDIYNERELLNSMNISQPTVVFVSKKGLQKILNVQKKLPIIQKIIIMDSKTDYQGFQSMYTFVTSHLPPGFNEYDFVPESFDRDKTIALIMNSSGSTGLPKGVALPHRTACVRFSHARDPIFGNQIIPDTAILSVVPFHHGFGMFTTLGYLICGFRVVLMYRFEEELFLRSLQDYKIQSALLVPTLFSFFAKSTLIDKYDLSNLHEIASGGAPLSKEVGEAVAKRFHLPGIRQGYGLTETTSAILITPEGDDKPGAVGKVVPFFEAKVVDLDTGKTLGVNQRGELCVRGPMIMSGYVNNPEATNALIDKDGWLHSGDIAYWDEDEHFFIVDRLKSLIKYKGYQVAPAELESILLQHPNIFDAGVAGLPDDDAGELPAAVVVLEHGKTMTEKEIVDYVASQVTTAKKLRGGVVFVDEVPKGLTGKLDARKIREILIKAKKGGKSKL
SMILES,Potency,"activity change, negative = inhibition"
O=C1C=C(c2ccc(C(=O)O)cc2)C[C@@H](c2ccc3c(c2)OCO3)C1,"inconclusive: 33.8 µM [inhibitor, partial curve, poor fit]",
O=c1oc2c(O)c(O)cc3c(=O)oc4c(O)c(O)cc1c4c23,"inconclusive: 21.3 µM [inhibitor, single point]",
CSc1ccc(/C=N/NC(=O)C[n+]2ccccc2)cc1,,inactive: -2.04%
Cc1ccc(-c2cc(C(=O)N(C)CC(=O)Nc3ccccc3Br)c3ccccc3n2)o1,"inconclusive: 3.01 µM [inhibitor, partial curve]",
COc1cc2c(cc1OC)n(CC(=O)Nc1ccccc1)c(=O)n1nc(-c3ccccc3)nc21,,inactive: -7.05%
COc1ccc(S(=O)(=O)Cc2ccc(C(=O)N3CCN(c4cc(Cl)ccc4C)CC3)o2)cc1,,inactive: 1.22%
Cc1ccc(/C=C/c2nc3ccccc3n2S(=O)(=O)c2cccc(Cl)c2)cc1,active: 0.675 µM,
Cc1ccc(NC(=O)C2CCCN(c3ncccn3)C2)cc1C (stereo unspecified),active: 16.9 µM,
O=c1c2c(nc3c(-c4ccc(Cl)cc4)c[nH]n13)CCC2,"inconclusive: 23.9 µM [inhibitor, single point]",
CCc1ccc2nc3sc(C(=O)Nc4nnc(CC)s4)c(N)c3cc2c1,active: 2.39 µM,
O=C(N/N=C/C(Br)=C/c1ccccc1)NC1CCCCC1,"inconclusive: 37.9 µM [inhibitor, single point]",
COc1ccc2c(c1)O/C(=C\c1ccco1)C2=O,active: 0.601 µM,
CCOc1ccc(C(=O)NNC(=O)CN2C(=O)NC3(CCCC3)C2=O)cc1,"inconclusive: 37.9 µM [inhibitor, partial curve, poor fit]",
Cc1c(CCC(=O)NCC(=O)O)c(=O)oc2cc3occ(-c4ccccc4)c3cc12,"inconclusive: 26.9 µM [inhibitor, single point]",
CN1c2ccccc2C(C)(C)C12C=Nc1c(ccc3ccccc13)O2 (stereo unspecified),active: 15.1 µM,
Cc1cccc(N2CN=c3s/c(=C\c4ccncc4)c(=O)n3C2)c1,"inconclusive: 23.9 µM [inhibitor, partial curve, poor fit]",
CC1CCc2c(sc(NC(=O)COC(=O)C3CCCO3)c2C#N)C1 (stereo unspecified),"inconclusive: 13.5 µM [inhibitor, partial curve, poor fit]",
CCCCOC(=O)c1c(C)oc2ccc(NS(=O)(=O)c3ccc(F)cc3C)cc12,"inconclusive: 30.1 µM [inhibitor, partial curve, poor fit]",
COc1ccc(C(=O)N2CCN(c3cccc(Cl)c3)CC2)cc1S(=O)(=O)NC1CC1,"inconclusive: 21.3 µM [inhibitor, single point]",
C=C1CCN([C@H](C(=O)OCc2cccc(C)c2)C(C)C)S(=O)(=O)c2ccccc21,,inactive: -1.29%
CCOc1ccc(OCC)c(Nc2cc(C)nc3nc(C)nn23)c1,,inactive: 6.6%
O=C(Nc1ccccc1)N(O)c1ccc(Cl)cc1,active: 12 µM,
COC(=O)Cc1[nH]n(-c2nc3ccccc3s2)c(=O)c1C(C)=Nc1ccc(Cl)cc1,active: 12 µM,
COc1cc(OC)c(-c2nn3c(C4CCCCC4)nnc3s2)cc1OC,,inactive: -0.9%

SMILES,Potency,"activity change, negative = inhibition"
O=C(c1ccc2c(c1)N(Cc1cccc(Cl)c1)C(=O)c1ccccc1S2(=O)=O)N1CCCCCC1,,inactive: 4.11%
CC1CCCCC1NC(=O)/C(C#N)=C/c1ccc2c(c1)OCCO2 (stereo unspecified),"inconclusive: 23.9 µM [inhibitor, partial curve]",
CCc1ccc(S(=O)(=O)N/N=C\c2cn(CC(N)=O)c3ccccc23)cc1,"inconclusive: 33.8 µM [inhibitor, single point]",
Cc1ccc(NC(=O)C2CCN(C(=O)c3cnn(-c4ccccc4)c3-n3cccc3)CC2)cc1C,"inconclusive: 9.53 µM [inhibitor, partial curve, poor fit]",
Cc1cc(/C=C2\C(=N)N3N=C(C(C)C)SC3=NC2=O)c(C)n1-c1ccccc1,"inconclusive: 8.49 µM [inhibitor, partial curve]",
O=C(Nc1ccc(Cl)cc1Cl)c1ccc2c(c1)OCCO2,active: 0.301 µM,
Cc1cccc(-c2nc(C)c(CCNC(=O)c3cccs3)s2)c1,"inconclusive: 23.9 µM [inhibitor, partial curve]",
O=C(NCC(c1cccnc1)N1CCc2ccccc2C1)C(=O)Nc1ccc(F)cc1F (stereo unspecified),"inconclusive: 3.01 µM [inhibitor, full curve]",
COc1cc(NC(=O)c2cccc(Br)c2)nc(OC)n1,"inconclusive: 26.9 µM [inhibitor, single point]",
O=C(O)c1ccc(-c2nc(-c3ccccc3)cs2)cc1,active: 6.01 µM,
CNC(=O)/C(C#N)=C/c1ccc(-c2ccc(Cl)cc2)o1,"inconclusive: 4.78 µM [inhibitor, full curve]",
CC(C)OC(=O)Nc1ccc2c(c1)N(C(=O)CCN1CCN(CCO)CC1)c1ccccc1CC2,"inconclusive: 19 µM [inhibitor, partial curve]",
CC(=O)CCc1oc2ccccc2c1-c1ccccc1,,inactive: -5.01%
O=C(COC(=O)c1ccc2c(c1Cl)C(=O)c1ccccc1C2=O)NC1CC1,"inconclusive: 21.3 µM [inhibitor, partial curve]",
COc1ccc(CCN2CC(C(=O)NCc3nc4ccccc4n3C)CCC2=O)cc1 (stereo unspecified),"inconclusive: 33.8 µM [inhibitor, partial curve, poor fit]",
O=C(CN1C(=O)/C(=C/c2ccccc2F)Sc2ccccc21)NCC1CCCO1 (stereo unspecified),,inactive: -12.1%
COc1ccc(/C(N)=N/OC(=O)c2cccc([N+](=O)[O-])c2C)cc1OC,"inconclusive: 16.9 µM [inhibitor, partial curve]",
Cc1ccc(C(=O)c2ccc(N3CCN(C)CC3)c([N+](=O)[O-])c2)cc1,"inconclusive: 37.9 µM [inhibitor, partial curve, poor fit]",
Cc1ccccc1C(=O)NC(=S)Nc1cccc(NC(=O)C(C)C)c1,"inconclusive: 30.1 µM [inhibitor, partial curve, poor fit]",
COc1ccc(CCNC(=O)NC23CC4CC(CC(C4)C2)C3)cc1,"inconclusive: 26.9 µM [inhibitor, partial curve, poor fit]",
C=CCn1c(SCC(=O)Nc2sccc2C(N)=O)nc2sc(CC)cc2c1=O,"inconclusive: 8.49 µM [inhibitor, partial curve, poor fit]",
O=C(CSc1ncn(-c2ccccc2)n1)Nc1ccc2c(c1)OCCO2,"inconclusive: 23.9 µM [inhibitor, partial curve, poor fit]",
c1cc(CNc2ccc(N3CCOCC3)cc2)ccn1,"inconclusive: 23.9 µM [inhibitor, single point]",
CCOC(=O)CSc1ncnc2c1cnn2-c1ccc(C)cc1,"inconclusive: 3.38 µM [inhibitor, full curve]",

SMILES,Potency,"activity change, negative = inhibition"
Cc1c(F)cccc1NS(=O)(=O)c1ccc2c(c1)c(=O)n(C)c(=O)n2C,,inactive: -9.14%
O=C(c1cc(-c2cccnc2)nc2ccccc12)N1CCCc2ccccc21,,inactive: -19.1%
O=C(Oc1cccc(-c2cnc3ccccc3n2)c1)c1ccco1,active: 23.9 µM,
Cc1ccc(C(=O)OCC(=O)NC2CCCC(C)C2C)cc1S(=O)(=O)N1CCCCC1 (stereo unspecified),,inactive: 1.24%
NC(=O)c1ccc2c(=O)n3c(-c4cccs4)csc3nc2c1,"inconclusive: 16.9 µM [inhibitor, partial curve]",
O=C(Nc1ccc(Oc2cccnc2)cc1)c1ccccc1Cl,"inconclusive: 26.9 µM [inhibitor, partial curve, poor fit]",
CCc1nn2c(=O)cc(COC(=O)c3ccccc3NC(=O)c3ccc(C(C)(C)C)cc3)nc2s1,active: 5.36 µM,
COc1cc(CNC(=O)C2CC2)ccc1OCc1ccccc1,"inconclusive: 21.3 µM [inhibitor, partial curve, poor fit]",
Cc1nnc(SCc2cccc3ccccc23)s1,active: 23.9 µM,
Cc1cc(C(=O)OCC(=O)Nc2ccccc2)c(C)o1,"inconclusive: 33.8 µM [inhibitor, single point]",
Cc1ccc(C(=O)Cn2c(C(=O)/C=C/c3ccccc3)nc3ccccc32)cc1,"inconclusive: 12 µM [inhibitor, partial curve]",
COc1ccc(C(=O)N[C@H](C(=O)NCc2cccs2)C(C)C)cc1,,inactive: -1.48%
CC(=O)Nc1cccc(/C(C)=N/NC(=O)c2ccc(CN3CCOCC3)cc2)c1,,inactive: 7.4%
Cn1ncc(Cl)c1C(=O)Nc1ccc2c(c1)CCC2,"inconclusive: 3.79 µM [inhibitor, single point]",
Cc1ccccc1NC(=O)CC(=O)c1ccccc1,"inconclusive: 37.9 µM [inhibitor, partial curve, poor fit]",
Cn1c2cc(B(O)O)sc2c2cnn(Cc3c(F)cccc3Cl)c(=O)c21,,inactive: -1.01%
N#Cc1cc2c(nc1SCc1nc3ccccc3[nH]1)CCC2,active: 1.35 µM,
O=C(CCc1ccccc1)Nc1ccc(NC(=O)c2ccco2)nc1,"inconclusive: 26.9 µM [inhibitor, partial curve]",
Cc1ccc(-c2nc3ccccc3nc2NN)cc1,active: 1.35 µM,
CC(=O)c1cc(C#N)c(SCC(=O)C(C)(C)C)nc1C,"inconclusive: 13.5 µM [inhibitor, partial curve, poor fit]",
COc1cccc(/C=N/Nc2ncnc(Cl)c2N)c1O,active: 9.53 µM,
COc1ccccc1C(=O)NC(=O)COC(=O)c1ccc(Cl)nc1,,inactive: 2.21%
CCOC(=O)c1nnc(-c2ccc(C)cc2)nc1Oc1ccc(Cl)cc1Cl,"inconclusive: 37.9 µM [inhibitor, partial curve, poor fit]",
